Data as given in PubChem BioAssay AID360 (National Center for Advancing Translational Sciences (NCATS), 2006).
Out of some 48,000 compounds screened, about 550 (1.1%) were called active. Another 4% or so got no clear call; they are omitted. No stated cut-off is given here; in the data, active means potency below about 15 µM; inconclusive means mostly about 16 µM to 33 µM; inactive means weaker than that. The list shows a part of the results.

molecular target: Lysosomal acid glucosylceramidase (Homo sapiens) (UniProt P04062); assay: Glucocerebrosidase; conditions: purified enzyme, resorufin glucoside fluorescence (screen aimed at inhibitors), 20 min;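 further: the screen sought inhibitors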
How it was run: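 Wild-type enzyme at 0.2 nM final in 50mM citric acid/KH2PO4, 10mM sodium taurocholate, 0.01% tween-20, pH 5.9, with resorufin beta-D-glucopyranoside at 30 uM final. Compounds titrated, 20 min at RT, red fluorescence read; AC50 from titration.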
Potency means the concentration at half of the fitted maximal effect.

Chain of UniProt P04062 (P04062 whole entry, looked up): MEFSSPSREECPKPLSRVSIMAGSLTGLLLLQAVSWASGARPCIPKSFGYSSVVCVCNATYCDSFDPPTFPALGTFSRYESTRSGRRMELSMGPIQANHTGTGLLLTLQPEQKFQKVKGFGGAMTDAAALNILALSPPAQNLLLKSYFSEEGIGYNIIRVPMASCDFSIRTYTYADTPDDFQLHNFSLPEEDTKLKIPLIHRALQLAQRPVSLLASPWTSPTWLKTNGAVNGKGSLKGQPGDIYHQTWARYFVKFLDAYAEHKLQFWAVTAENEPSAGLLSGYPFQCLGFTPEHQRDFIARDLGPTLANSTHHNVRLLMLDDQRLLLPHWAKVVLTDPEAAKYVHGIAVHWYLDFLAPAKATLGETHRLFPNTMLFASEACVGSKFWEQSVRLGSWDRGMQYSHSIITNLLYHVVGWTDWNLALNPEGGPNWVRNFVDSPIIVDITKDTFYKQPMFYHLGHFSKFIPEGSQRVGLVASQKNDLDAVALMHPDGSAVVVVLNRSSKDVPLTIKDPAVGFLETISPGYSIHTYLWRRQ

Potency, inactive:
Cc1cc(NC(=O)c2cccc(F)c2)ncc1NC(=O)c1ccco1 > 76.9 µM
C/C(O)=C(/N=O)C(=O)Nc1ccccc1 > 76.9 µM
CCOc1ccc(-c2nc(-c3ccc(OC)c(OC)c3)no2)cc1OCC > 76.9 µM
O=C(CSc1nnc(C2CC2)n1Cc1ccccc1)c1cc2ccccc2o1 > 76.9 µM
CSc1nc(-c2ccccc2)ccc1C(N)=O > 76.9 µM
CCCCNc1c(C(=O)OCC)c(=O)[nH]c2ccccc12 > 76.9 µM
O=c1cc(CN2CCN(C/C=C/c3ccccc3)CC2)c2cc(O)ccc2o1 > 76.9 µM
COc1cccc(NC(=O)c2cn(C)c(=O)c3cc(OC)c(OC)cc23)c1 > 76.9 µM
O=C1OCc2cccc3cccc1c23 > 76.9 µM
CC(C)n1c(N2CCN(C(=O)N3CCCCC3)CC2)nc2ccccc21 > 76.9 µM
COCCNC(=O)c1ccccc1-c1nc(-c2ccccc2Cl)no1 > 76.9 µM
O=C(O)C1CC=CCC1C(=O)Nc1cc(Cl)ccc1Cl (centres undefined) > 76.9 µM
C#CC1(O)CC(C)N(C)C(C)C1 (centres undefined) > 76.9 µM
CN(CCCC(=O)NCc1ccco1)S(=O)(=O)c1ccccc1 > 76.9 µM
O=C(Oc1nsnc1N1CCCCC1)N1CCOCC1 > 76.9 µM
COc1cccc(CNC(=O)c2ccccc2N)c1 > 76.9 µM
O=S(=O)(c1cccc(-c2nc3ccccc3s2)c1)N1CCCC1 > 76.9 µM
Cc1nnc(N2CCN(c3ccccc3)CC2)[nH]c1=O > 76.9 µM
CCn1c(COc2ccccc2)nnc1SCc1ccc(C#N)cc1 > 76.9 µM
O=C(NCCc1ccccn1)c1ccc(S(=O)(=O)N2CCCCCC2)cc1
COc1ccc(OC)c(C(=O)C2COC(=O)C2)c1 (centres undefined) > 76.9 µM
CCOc1cc(C2C(C#N)=C(N)Oc3n[nH]c(CC)c32)ccc1OCCN1CCOCC1 (centres undefined) > 76.9 µM
CCOC(=O)c1c(C)c(C(=O)NCCc2ccc(S(N)(=O)=O)cc2)c(C)n1CC > 76.9 µM
COc1cccc(CNn2cnnc2)c1OCc1ccc(F)cc1 > 76.9 µM
N#C/C(=C/c1ccc(N2CCCCCC2)o1)c1ccc(F)cc1 > 76.9 µM
CCS(=O)(=O)N1Cc2ccccc2CC1C(=O)N1CCN(c2cccc(C)c2C)CC1 (centres undefined) > 76.9 µM
O=C1CC(c2ccc(F)cc2)Cc2nc(N3CCOCC3)ncc21 (centres undefined) > 76.9 µM
COC(=O)c1[nH]c2cc(OC)ccc2c1NC(=O)CN1CCC(C(N)=O)(N2CCCCC2)CC1 > 76.9 µM
COc1ccccc1OCCCn1c(C)c(C#N)c2ccccc21 > 76.9 µM
COc1ccc(OCC(O)COc2ccc(C(=O)O)cc2)cc1 (centres undefined) > 76.9 µM
Cn1c(N)c(C(=O)COC(=O)C2(c3cccc(F)c3)CCCC2)c(=O)n(C)c1=O
O=c1c2ccccc2n2cnnc2n1-c1ccccc1 > 76.9 µM
O=C(Oc1ccccc1OC(=O)N1CCOCC1)N1CCOCC1 > 76.9 µM
O=C(c1ccc(S(=O)(=O)N2CCCC2)cc1)N1CCN(Cc2ccc3c(c2)OCO3)CC1 > 76.9 µM
O=C(COc1ccccc1)N1CCN(S(=O)(=O)Cc2ccccc2)CC1 > 76.9 µM
CCCC1=[N+](CC)CCn2c(C)ccc21 > 76.9 µM
Cc1ccnc2nc(C(=O)N3CCN(S(=O)(=O)c4ccccc4)CC3)nn12 > 76.9 µM
Cc1ccccc1-c1ccc(=O)n(CC(=O)Nc2ccc(N3CCOCC3)cc2)n1 > 76.9 µM
O=S(=O)(NC1CCCCC1)c1ccc(Cl)s1
Cc1nc2nc3c(cn2n1)C(=O)CC(C)(C)C3 > 76.9 µM
CCN(CC(=O)NC)S(=O)(=O)c1ccc(C)cc1 > 76.9 µM
COC(=O)c1[nH]c2cccc(OC)c2c1NC(=O)CCN1CCC(C(N)=O)CC1 > 76.9 µM
COc1ccccc1OCC(=O)O > 76.9 µM
CCc1nc2ccccc2c(=O)n1NC(=O)c1c(O)c2ccccc2[nH]c1=O > 76.9 µM
O=C(NCc1cccs1)C1CCN(c2nc3ccccc3o2)CC1 > 76.9 µM
CCc1[nH]nc2c1C(c1cccc(OC(=O)N3CCOCC3)c1)C(C#N)=C(N)O2 (centres undefined) > 76.9 µM
Cc1cc(C)c(C#N)c(SCS(=O)Cc2ccc(Cl)cc2)n1 (centres undefined) > 76.9 µM
COC(=O)c1ccc(C2/C(=C(/O)c3ccc(OC)cc3)C(=O)C(=O)N2CC2CCCO2)cc1 (centres undefined) > 76.9 µM
Cc1cccc(C(=O)NCc2nnc(SCC(=O)N3CCN(c4ccccc4)CC3)n2C)c1 > 76.9 µM
O=C(NCCN1CCOCC1)c1cn(CCc2ccccc2)nn1 > 76.9 µM
CC(C)CCn1cnc2c(cnn2-c2ccc(Cl)cc2)c1=O > 76.9 µM
Cc1ccccc1-n1c(SCc2cc(=O)n3ccccc3n2)nc2[nH]ncc2c1=O > 76.9 µM
COc1ccc(N2C(=O)CC(N3CCN(C4CCc5ccccc5C4)CC3)C2=O)cc1 (centres undefined) > 76.9 µM
Cc1cc2c(cc1C)NC(c1c(C)n(C)n(-c3ccccc3)c1=O)C1=C(CC(C)(C)CC1=O)N2 (centres undefined) > 76.9 µM
Cc1c(C(=O)OC2CCCCC2)sc2nc[nH]c(=O)c12 > 76.9 µM
CCOc1ccc(-n2nnnc2SCC(=O)c2ccccc2)cc1 > 76.9 µM
COc1ccccc1N1CCN(Cc2nc3ccccc3c(=O)n2CC(C)=O)CC1 > 76.9 µM
CCC(=O)N1CCc2cc(S(=O)(=O)NC(C(=O)NCc3ccc(F)cc3)C(C)C)ccc21 (centres undefined) > 76.9 µM
N#Cc1cc2cc3c(cc2nc1SCC(=O)OC1CCCCC1)OCO3 > 76.9 µM
